Laboratory results from article PMC4336329 (PLoS ONE, 2015).
Out of some 310,000 compounds screened, about 2,200 (0.71%) showed an effect of 50% or more. Effects have a minus sign here. The list shows a part of the results.

biological target: human ether-à-go-go-related gene (hERG) potassium channel (human, UniProt Q12809); test: primary screen, population patch clamp on CHO cells stably expressing hERG
Sequence (Q12809 whole entry, looked up): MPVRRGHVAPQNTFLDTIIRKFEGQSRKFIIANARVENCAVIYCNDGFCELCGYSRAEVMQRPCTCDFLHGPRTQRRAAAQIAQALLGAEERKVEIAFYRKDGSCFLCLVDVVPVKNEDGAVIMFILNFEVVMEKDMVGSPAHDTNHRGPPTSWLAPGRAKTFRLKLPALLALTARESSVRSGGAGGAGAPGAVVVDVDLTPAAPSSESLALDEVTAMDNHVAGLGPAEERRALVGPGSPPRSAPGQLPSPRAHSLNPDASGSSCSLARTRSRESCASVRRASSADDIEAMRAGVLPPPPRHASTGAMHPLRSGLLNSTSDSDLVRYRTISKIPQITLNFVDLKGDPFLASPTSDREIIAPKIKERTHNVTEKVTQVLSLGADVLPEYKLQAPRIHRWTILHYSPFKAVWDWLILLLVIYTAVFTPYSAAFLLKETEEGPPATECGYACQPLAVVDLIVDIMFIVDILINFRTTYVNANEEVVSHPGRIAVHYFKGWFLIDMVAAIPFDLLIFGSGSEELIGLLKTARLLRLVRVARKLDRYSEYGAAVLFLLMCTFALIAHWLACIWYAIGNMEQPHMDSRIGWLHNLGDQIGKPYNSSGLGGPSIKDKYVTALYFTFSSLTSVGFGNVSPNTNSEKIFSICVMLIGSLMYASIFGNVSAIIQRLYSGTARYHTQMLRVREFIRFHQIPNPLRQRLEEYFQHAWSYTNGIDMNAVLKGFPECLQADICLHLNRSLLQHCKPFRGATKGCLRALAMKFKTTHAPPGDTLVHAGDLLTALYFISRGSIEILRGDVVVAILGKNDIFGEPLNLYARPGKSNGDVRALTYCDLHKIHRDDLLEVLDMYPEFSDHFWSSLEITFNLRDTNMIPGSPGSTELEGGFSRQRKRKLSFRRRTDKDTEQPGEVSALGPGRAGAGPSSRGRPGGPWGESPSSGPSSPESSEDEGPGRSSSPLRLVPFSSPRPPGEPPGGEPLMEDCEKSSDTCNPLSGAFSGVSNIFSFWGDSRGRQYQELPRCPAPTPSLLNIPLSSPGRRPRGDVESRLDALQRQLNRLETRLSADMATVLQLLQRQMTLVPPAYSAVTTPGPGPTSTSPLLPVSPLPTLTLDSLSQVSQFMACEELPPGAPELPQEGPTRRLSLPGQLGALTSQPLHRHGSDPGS

Point of comparison: `O=C(NC(=S)NNC(=O)c1ccco1)c1ccccc1`, “hERG current change (%, negative = inhibition) at 1uM” value 10.8%. Against it:
- CC(C(c1cccs1)c1c(N)n(C)c(=O)n(C)c1=O)[N+](=O)[O-] (centres unmarked) — lower, 8.07%
- O=C(CN1c2ccccc2Sc2ccccc21)N/N=C/c1ccc(Cl)cc1 — lower, 4.36%
- COc1ccc(S(=O)(=O)NCCc2c[nH]c3ccccc23)cc1OC — higher, 12.4%
- N#Cc1ccc(NC(=O)CCc2nc3ccccc3s2)cc1 — lower, 7.52%
- CC(C)N=C(NS(=O)(=O)NC(=O)c1ccccc1)c1ccccc1 — lower, 1.76%
- Cn1c(=O)n(CC(=O)O)c(=O)c2c1nc1n2CCCN1CCc1ccccc1 — higher, 11.4%
- COc1ccc(C(=O)Nc2c3c(nn2-c2cccc(Cl)c2)CS(=O)C3)cc1 (centres unmarked) — lower, -1.67%
- COc1ccc(CCNC(=O)C2CC(c3ccc([N+](=O)[O-])cc3)=NO2)cc1 (centres unmarked) — lower, -44%
- CC(=O)c1c(NCCc2ccccc2)cc(C)oc1=O — lower, -2.33%
- CSc1nc2n(n1)C(c1cccc(F)c1)C(C(=O)Nc1ccc(C)cc1C)=C(C)N2 (centres unmarked) — lower, 3.03%
- COc1ccc(S(=O)(=O)N(CC(=O)Nc2ccc3c(c2)OCO3)c2ccccc2OC)cc1 — lower, 6.56%
- CCOc1cc(N2CCOCC2)c(OCC)cc1NC(=O)COc1cccc2cccnc12 — higher, 14%
- Cc1ccc2c(c1)nnn2C1CCN(CC(=O)N(c2ccccc2)c2ccccc2)CC1 — higher, 14.7%
- CO[C@H]1O[C@H](C)[C@@H](O)C[C@H]1NC(=O)OCc1ccccc1 — higher, 15.1%
- CCOc1ccccc1C(=O)N1CCC(n2nnc3cc(C)ccc32)CC1 — lower, -8.63%
- COc1ccc(C2/C=C\CN(S(=O)(=O)/C=C/c3ccccc3)[C@H](Cc3ccccc3)C(=O)N2Cc2ccc(F)cc2)cc1 (some centres unmarked) — lower, 6.14%
- Cc1ccnc(N2C(=O)c3ccccc3C2Nc2ccc3c(c2)OCCO3)c1 (centres unmarked) — lower, 6.78%
- CC1=C(C)CC(C(=O)Nc2nc(-c3ccc(C)cc3C)c(C)s2)C(C(=O)O)C1 (centres unmarked) — higher, 17.9%
- COc1ccccc1OCC(=O)Nc1ccc(S(=O)(=O)N(C)c2ccccc2)cc1 — lower, 8.13%
- CC(C)(C)c1csc(NC(=O)c2c(F)c(F)c(F)c(F)c2F)n1 — lower, -2.19%
- O=C(O)CS(=O)(=O)c1ccc(C(F)(F)F)cn1 — lower, 10.3%
- Cc1cc(S(=O)(=O)Nc2cccc(O)c2)c(C)s1 — lower, 6.52%
- CSc1ccc(/C=N/NC(=O)CN2CCN(Cc3ccc(C)cc3)CC2)cc1 — lower, 2.67%
- CCC(=O)Nc1nc2ccccc2n1CCN1CCOCC1 — higher, 18.8%
- COC(=O)c1ccccc1NC(=O)CN1CCc2ccccc2C1 — lower, 9.12%
- CC[C@H](C)[C@@H](C(=O)NCCCCCCCCCCC(=O)N1CCN(C(=O)OC(C)(C)C)CC1)n1cc(CCCCN=C(NC(=O)OC(C)(C)C)NC(=O)OC(C)(C)C)nn1 — lower, 7.43%
- CCN(CC)c1ccc(/C=C(\C#N)C(=O)NCc2ccccc2)cc1 — lower, -8.78%
- CC(C)(C)NC(=O)C(c1ccco1)N(Cc1ccc2c(c1)OCO2)C(=O)Cn1nnc2ccccc21 (centres unmarked) — lower, 8.71%
- O=C(/C=C/c1cccc([N+](=O)[O-])c1)NCc1ccco1 — lower, -1.88%
- CCN(CC)CCCN(C(=O)c1ccco1)c1nc(-c2ccc(Cl)cc2)cs1.Cl — lower, -25.5%
- COC(=O)c1ccc(CSCC(=O)Nc2cc(OC)cc(OC)c2)o1 — lower, 6.51%
- CC(C)c1ccccc1-n1c(SCc2cc(=O)oc3ccc4ccccc4c23)nnc1-c1cccnc1 — lower, 2.29%
- O=S(=O)(Nc1ccc(-c2ccc3nncn3n2)cc1)c1cccc(F)c1 — higher, 14.1%
- COc1ccc(C(=O)NCc2ccncc2)cc1S(=O)(=O)NCc1ccc(Cl)cc1 — higher, 13.7%
- Cc1ccc(-n2nc3ccc(NC(=O)c4ccco4)cc3n2)cc1 — lower, 7.57%
- O=C(c1ccc(COc2ccccc2[N+](=O)[O-])o1)N1CCCCC1 — lower, -12.3%
- O=c1oc2c(CN3CCN(CCO)CC3)c(O)ccc2cc1-c1ccccn1 — lower, 6.19%
- CCOc1ccc(N(CC(=O)NCc2ccc(OC)cc2)S(=O)(=O)c2c(C)noc2C)cc1 — lower, 8.93%
- N#Cc1cc(C#N)c(N2CCN(c3ccccn3)CC2)nc1N — lower, -8.77%
- Cc1ccc(NC(=O)COC(=O)Cc2c[nH]c3ccccc23)cc1C — lower, 6.36%
- CCc1ccc2oc(C(=O)Nc3cccnc3)c(C)c2c1 — lower, 3.21%
- CC1CC2(CC(C)(C(=O)CSc3nc4ccccc4s3)OC2=O)C(=O)O1 (centres unmarked) — lower, -2.98%
- COc1ccccc1C(=O)NC(C)C(c1cccs1)N1CCN(C)CC1 (centres unmarked) — lower, -2.48%
- NC(=O)c1nsc(C(=O)N(c2ccccc2F)C(C(=O)NCc2ccc(F)cc2)c2ccc(O)cc2)c1N (centres unmarked) — lower, 4.4%
- O=C(O)CCCCCNc1nc(=S)[nH]c2ccccc12 — lower, 5.34%
- COc1ccccc1C(=O)Nc1ccc2c(c1)CN(C(=O)CSC)CC2 — lower, 8.72%
- COc1ccc(CCN=Cc2c(C)[nH]n(-c3ccc([N+](=O)[O-])cc3)c2=O)cc1OC — lower, 7%
- O=C(CNC(=O)c1cccc(F)c1)N/N=C/c1ccc([N+](=O)[O-])s1 — lower, 7.15%
- CC1(C)Oc2ccc(C#N)cc2[C@@H](N2CCCC2=O)[C@@H]1O — higher, 13.3%
- OCC12COC3c4ccccc4C(OC1)N32 (centres unmarked) — lower, 5.71%
- Cc1ccc(C)c(NC(=O)Cc2nc(CCl)cs2)c1 — lower, 0.823%
- COc1ccc(C(=O)C2CCCN(C(=O)CCNC(C)=O)C2)cc1OC (centres unmarked) — higher, 15.3%
